Experimental data taken from US20260209358A1.

Target: T1, CD37 on CD37+ target tumor cells (Daudi or Ramos cells) (UniProt P11049)
T1 sequence (looked up): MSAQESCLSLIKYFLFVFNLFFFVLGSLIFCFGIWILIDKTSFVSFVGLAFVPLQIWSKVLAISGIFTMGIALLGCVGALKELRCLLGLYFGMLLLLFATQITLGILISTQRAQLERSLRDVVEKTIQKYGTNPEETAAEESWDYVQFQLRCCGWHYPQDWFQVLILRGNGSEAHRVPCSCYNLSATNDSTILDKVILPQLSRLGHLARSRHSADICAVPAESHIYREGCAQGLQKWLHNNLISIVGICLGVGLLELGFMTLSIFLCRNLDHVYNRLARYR
Experiment: cell-based or functional assay

EC50 of ADCC (calcein release) on Ramos cells with primary human NK cells: 9.33 pM | EC50 of ADCP on Ramos cells with THP-1 effector cells: 19.1 pM | EC50 of CDC (PI+ cells) on Daudi cells with normal human serum: 510 pM
B1: AGS67C IgG (parent CD37 IgG) (antibody, V domains shown)
VH: QVQLQQWGAGLLKPSETLSLTCAVYGGSFSPYYWSWIRQPPGKGLEWIGEINHSGSTNYNPSLKSRVTISVDTSKNQFSLKLSSVTAADTAVYYCARRAGDFDYWGQGTLVTVSS
VL: [about 100 residues left out here]FGQGTKLEIKR
